Test results taken from the supplement of paper PMC7826260.
This is one part of the list. Cleavage of a single-stranded DNA pool by Rep nickase domains was read by sequencing (1 h at 37 °C, 3 µM enzyme); the outer parts of the 90-letter strands are left off. Numbers give uncut DNA relative to the enzyme-free pool, as log2; uncut sequences lie near 0, cut ones below; no hit call is given. Counts are relative to all reads; values above 0 arise when much of the pool is cut.

How the values were obtained:
Assay in all cases: uncleaved DNA left, log2 of reads against the no-enzyme library (log2 ratio); higher = less cleavage (more negative = more Rep cleavage of the k-mer); sequences stand for … in CTCGTCCG…ACCGGAGA
[1] = system: T1, Rep nickase domain of Muscovy duck circovirus
T1 sequence (residues 1-111, tag not shown): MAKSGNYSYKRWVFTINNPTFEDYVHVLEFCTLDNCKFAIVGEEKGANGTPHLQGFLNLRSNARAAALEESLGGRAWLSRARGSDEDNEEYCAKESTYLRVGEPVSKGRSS
Description: (§1)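 A pool of 90-nt single-stranded DNAs with seven random bases just before the constant AC of the nick site (name = the seven bases) was cut by 3 µM recombinant His6-SUMO-tagged Rep nickase domain (300 nM DNA, 50 mM HEPES pH 8.0, 50 mM NaCl, 1 mM MnCl2, 1 h, 37 °C, three replicates). Uncut DNA was amplified and sequenced.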

[2] = system: T2, Rep nickase domain of banana bunchy top virus
T2 sequence (residues 1-94, tag not shown): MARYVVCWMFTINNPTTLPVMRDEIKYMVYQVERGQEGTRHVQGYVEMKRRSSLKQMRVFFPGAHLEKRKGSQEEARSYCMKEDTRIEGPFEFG
Description: as §1

[3] = system: T3, Rep nickase domain of cabbage leaf curl virus
T3 sequence (residues 1-116, tag not shown): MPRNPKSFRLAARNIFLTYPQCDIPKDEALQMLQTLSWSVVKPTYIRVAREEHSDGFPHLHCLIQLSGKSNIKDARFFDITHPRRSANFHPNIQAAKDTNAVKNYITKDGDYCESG
Description: as §1

[4] = system: T4, Rep nickase domain of chickpea chlorotic dwarf virus
T4 sequence (residues 1-124, tag not shown): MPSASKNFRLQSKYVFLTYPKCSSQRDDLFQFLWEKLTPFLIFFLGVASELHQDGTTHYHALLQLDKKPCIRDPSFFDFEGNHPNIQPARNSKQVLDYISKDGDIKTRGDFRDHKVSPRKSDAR
Description: as §1

[5] = system: T5, Rep nickase domain of faba bean necrotic yellows virus
T5 sequence (residues 1-98, tag not shown): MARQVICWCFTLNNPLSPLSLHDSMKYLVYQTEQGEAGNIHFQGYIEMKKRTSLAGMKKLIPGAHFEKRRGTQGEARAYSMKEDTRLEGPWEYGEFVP
Description: as §1

[6] = system: T6, Rep nickase domain of maize striate mosaic virus
T6 sequence (residues 1-117, tag not shown): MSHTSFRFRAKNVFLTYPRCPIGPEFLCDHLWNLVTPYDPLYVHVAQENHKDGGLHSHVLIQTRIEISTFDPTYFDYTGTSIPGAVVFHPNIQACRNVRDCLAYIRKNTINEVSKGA
Description: as §1

[7] = system: T7, Rep nickase domain of porcine circovirus 2
T7 sequence (residues 2-116, tag not shown): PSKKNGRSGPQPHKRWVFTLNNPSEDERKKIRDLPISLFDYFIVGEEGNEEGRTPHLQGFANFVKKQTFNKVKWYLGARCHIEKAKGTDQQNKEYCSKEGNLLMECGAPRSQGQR
Description: as §1

[8] = system: T8, Rep nickase domain of tomato golden mosaic virus
T8 sequence (residues 1-124, tag not shown): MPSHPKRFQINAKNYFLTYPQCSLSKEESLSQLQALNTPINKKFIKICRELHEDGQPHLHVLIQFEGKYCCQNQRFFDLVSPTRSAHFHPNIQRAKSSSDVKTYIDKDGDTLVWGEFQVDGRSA
Description: as §1

[9] = system: T9, Rep nickase domain of tomato yellow leaf curl virus
T9 sequence (residues 1-136, tag not shown): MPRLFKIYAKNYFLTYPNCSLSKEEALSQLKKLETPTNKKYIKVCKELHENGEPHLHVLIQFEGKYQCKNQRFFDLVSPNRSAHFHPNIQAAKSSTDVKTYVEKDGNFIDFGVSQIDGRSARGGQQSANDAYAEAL
Description: as §1

[10] = system: T10, Rep nickase domain of wheat dwarf virus
T10 sequence (residues 1-137, tag not shown): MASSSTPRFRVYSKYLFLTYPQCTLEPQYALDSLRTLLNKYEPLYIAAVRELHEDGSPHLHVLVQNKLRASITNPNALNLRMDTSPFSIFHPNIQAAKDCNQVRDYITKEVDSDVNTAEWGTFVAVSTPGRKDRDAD
Description: as §1

Row | Sequence | uncleaved DNA left (log2) [1] | uncleaved DNA left (log2) [2] | uncleaved DNA left (log2) [3] | uncleaved DNA left (log2) [4] | uncleaved DNA left (log2) [5] | uncleaved DNA left (log2) [6] | uncleaved DNA left (log2) [7] | uncleaved DNA left (log2) [8] | uncleaved DNA left (log2) [9] | uncleaved DNA left (log2) [10]
1 | CGGCATG | 0.0143 | -0.0985 | -0.0935 | 0.548 | -0.16 | 1.13 | 0.00215 | 0.0373 | -0.19 | -0.094
2 | CGGGGCA | 0.191 | 0.155 | 0.951 | 1.86 | -0.0224 | 2.22 | 0.256 | 0.1 | 0.109 | 0.19
3 | CTAACGG | 0.0392 | 0.036 | 0.455 | 1.45 | 0.0237 | 1.67 | 0.193 | 0.18 | -0.0302 | 0.0415
4 | GGCCCTT | -0.0816 | -0.0903 | 0.737 | 1.43 | -0.0055 | 2.11 | -0.105 | -0.0756 | 0.0142 | 0.0241
5 | CTTAGGT | 0.062 | 0.0501 | 0.445 | 1.08 | 0.128 | 1.21 | 0.156 | -0.0381 | 0.16 | -0.00382
6 | ATTGGTT | -0.0455 | -0.0834 | 0.126 | 0.532 | -0.0231 | 1.24 | -0.342 | 0.0705 | -0.152 | -0.0434
7 | CCCCTGT | -0.118 | -0.0536 | -0.112 | -0.566 | -0.0661 | -0.458 | -0.181 | -0.165 | -0.101 | -0.131
8 | TTTCAAT | -0.0835 | 0.0213 | 0.218 | 0.189 | 0.0597 | 0.276 | -0.201 | 0.118 | 0.162 | 0.172
9 | CTGTCTT | -2.31 | -0.927 | -0.103 | -1.95 | -0.75 | -0.393 | -3.33 | -0.0138 | 0.0475 | -0.0597
10 | GCCGTCC | -0.0787 | -0.0319 | 0.182 | 0.308 | -0.0279 | 0.0603 | 0.0526 | 0.0509 | -0.132 | 0.0632
11 | GCTTCGG | 0.0212 | 0.0624 | 0.281 | 1.12 | -0.0272 | 1.24 | 0.159 | -0.044 | -0.144 | -0.0508
12 | TCAGGGA | 0.168 | 0.0978 | 0.269 | 0.983 | 0.0932 | 1.03 | 0.114 | 0.108 | 0.0372 | 0.154
13 | TTAGCAT | -0.0478 | -0.0153 | 0.127 | 0.205 | -0.0617 | -0.279 | -0.0384 | -0.0679 | -0.0106 | 0.0234
14 | AATTAAT | -3.45 | -3.89 | -1.05 | -2.57 | -0.603 | -0.245 | -3.74 | -0.296 | 0.0688 | -0.288
15 | CTACCCC | -0.259 | -0.127 | -0.0326 | -1.68 | -0.129 | -0.336 | -1.14 | -0.0928 | -0.0514 | -0.219
